Reference: US10751422B2, “Antibody drug conjugates (ADC) that bind to FLT3 proteins” (AGENSYS, INC., priority 2015, dated 2020)

Molecular target: cell surface FLT3 (Homo sapiens, UniProt P36888)
Assay: Binding of recombinant MAb to cell surface FLT3 by flow cytometry
Description: To express CHv62.21 MAb recombinantly in transfected cells, v62.21 hybridoma MAb variable heavy and light chain sequences were cloned upstream of the human heavy chain IgG and human light chain IgK constant regions respectively. The complete CHv62.21 MAb human heavy chain and light chain cassettes were cloned downstream of the CMV promoter/enhancer in a cloning vector. The recombinant CHv62.21 MAb expressing construct was transfected into CHO cells for stable expression in the Lonza GS system (Lonza, Basel, Switzerland). The CHv62.21 MAb secreted from recombinant CHO cells was purified and evaluated for binding to cell surface FLT3 by flow cytometry.
The CHv62.21 MAb secreted from recombinant cells is also evaluated for binding to FLT3 recombinant protein by ELISA.
To express CHv62.21pAF recombinantly in transfected cells, v62-1b21 hybridoma MAb variable heavy and light chain sequences were cloned upstream of the human heavy chain IgG and human light chain IgK constant regions respectively. The complete CHv62.21 MAb human heavy chain and light chain cassettes were cloned downstream of the CMV promoter/enhancer in a cloning vector. […] The CHv62.21pAF secreted from the stable subclone was purified and evaluated for binding to cell surface FLT3 by flow cytometry.

B1: CHv62.21: FLT3 MAb, human IgG1/kappa, heavy chain SEQ ID NO: 9, light chain SEQ ID NO: 10, CHO cell ATCC PTA-121831 (antibody, listed as Homo sapiens)
heavy: EVQLVESGGGLVRPGGSLRLSCAASGFTFSGYSINWVRQAPGKGLEWVSSISSSSNYIYYADSVKGRFTISRDNAKNSLYLQMNSLRAEDTAVYYCAREGFIAGTTFDAFDIWGQGTMVTVSS[skipping human IgG1 constant region]
light: DIQMTQSPSSLSASVGDRVTITCRASQGIRNDLGWYQQKPGKAPKRLIYAASSLQSGVPSRFSGSGSGTEFTLTISSLQPEDFATYYCLQHNGFPYTFGQGTKLEIKRTVAAPSVFIFPPSDEQLKSGTASVVCLLNNFYPREAKVQWKVDNALQSGNSQESVTEQDSKDSTYSLSSTLTLSKADYEKHKVYACEVTHQGLSSPVTKSFNRGEC
modifications: CHv62.21 heavy chain; CHv62.21 light chain
binding to FLT3 compared with hybridoma-derived v62.21 (CHO expressed vs hybridoma): binds FLT3 similarly to the v62.21 purified from hybridoma | binding to cell surface FLT3 (MAb secreted from recombinant CHO cells, flow cytometry): binds to FLT3 on the cell surface
